“And” between values parts separate entries of the source, which are not always exact repeats. Equal entries are not always repeated. Structures can show the parent of a compound that is named as a salt. ± gives the standard deviation of the averaged measurements. The full ranking holds about 2,000 compounds; the median of “relative cell viability vs DMSO, compound + 0.2 uM CuET” is about 1, and the lowest 2% start at about 0.25. Some of the results follow.
Tested on: TE10
Assay: relative cell viability vs DMSO, compound + 0.2 uM CuET (fraction); TE10 is an esophageal squamous carcinoma line; higher = less cytotoxic
Details: 2 µM; co-treatment: CuET (bis(diethyldithiocarbamate)copper) 0.2 uM; 48 h
Method: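 TE10 ESCC cells (1,000/well, 384-well plates) were treated with Selleck bioactive library compounds at 2 uM combined with 0.2 uM CuET (copper diethyldithiocarbamate) for 48 h. Viability was read by CellTiter-Glo and expressed relative to DMSO wells. Two technical replicates (A, B).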

Row | SMILES | relative cell viability
1 | CNC(=O)CN1CCC(Oc2cc3c(Nc4cccc(Cl)c4F)ncnc3cc2OC)CC1 [AZD8931 (Sapitinib)] | 1.05 ± 0.024
2 | CCCS(=O)(=O)Nc1ccc(F)c(C(=O)c2c[nH]c3ncc(Cl)cc23)c1F | 1.21 ± 0.063
3 | Nc1nc(N)nc(-c2cc(Cl)ccc2Cl)n1 [Irsogladine] | 1.13 ± 0.1
4 | CCN1CCCC1CNC(=O)c1cc(S(=O)(=O)CC)c(N)cc1OC (stereo not drawn) [Amisulpride] | 1.31 ± 0.29
5 | CCc1c(C(=O)NCCc2ccc(N3CCCCC3)cc2)[nH]c2ccc(Cl)cc12 | 0.759 ± 0.035
6 | O=C(Nc1cccc(Cl)c1)Nc1ncc(CCNc2ncnc3ccsc23)s1 [SNS-314 Mesylate] | 0.981 ± 0.079
7 | O=C1c2ccccc2-c2n[nH]c3cccc1c23 | 1.301 ± 0.0075
8 | O=C(c1ccc(OCCN2CCCCC2)cc1)c1c(-c2ccc(O)cc2)sc2cc(O)ccc12 [Raloxifene HCl] | 0.688 ± 0.22
9 | CNC(=O)c1ccc(N2C(=S)N(c3cnc(C#N)c(C(F)(F)F)c3)C(=O)C23CCC3)cc1F | 1.36 ± 0.22
10 | CC1(C)CCCC2(C)C1CCC1(C)OC(=O)CC12 (stereo not drawn) [Sclareolide] | 1.05 ± 0.085
11 | CC(CN1c2ccccc2Sc2ccccc21)N(C)C (stereo not drawn) [Promethazine HCl] | 1.09 ± 0.069
12 | Fc1ccc2[nH]ccc2c1-c1nc(N2CCOCC2)c2sc(CN3CCN(CC4CC4)CC3)cc2n1 | 0.74 ± 0.011
13 | Cc1ccc(NC(=O)Nc2cc(C(F)(F)F)ccc2F)cc1Nc1ccc2c(c1)NC(=O)/C2=C\c1ccc[nH]1 | 0.974 ± 0.13
14 | CNC(=O)c1ccccc1Sc1ccc2c(/C=C/c3ccccn3)n[nH]c2c1 [Axitinib] | 0.379 ± 0.21
15 | S=C=Nc1cccc(NC(=S)NCCCCNC(=S)Nc2cccc(N=C=S)c2)c1 | 1.2 ± 0.15
16 | CCOc1cc(N2CCC(O)CC2)ccc1Nc1ncc2c(n1)N(C)c1ccccc1C(=O)N2C | 0.854 ± 0.18
17 | CC(C)C[C@H](NC(=O)CNC(=O)c1cc(Cl)ccc1Cl)B1OC(=O)CC(CC(=O)O)(C(=O)O)O1 (stereo partly drawn) | 0.818 ± 0.048
18 | CCOC(=O)C1=C(C)NC(C)=C(C(=O)OC)C1c1cccc([N+](=O)[O-])c1 (stereo not drawn) [Nitrendipine] | 1.11 ± 0.068
19 | COC1(c2sc3c(N4CCOCC4)nc(-c4cnc(N)nc4)nc3c2C)COC1 | 0.572 ± 0.036
20 | CN(C)CCC(c1ccc(Cl)cc1)c1ccccn1 (stereo not drawn) [Chlorpheniramine Maleate] | 1.02 ± 0.07
21 | COc1ccccc1N1CCN(CCN2C(=O)CC3(CCCC3)CC2=O)CC1 | 0.906 ± 0.22
22 | OCC(O)CN1CCN(c2ccccc2)CC1 (stereo not drawn) [Dropropizine] | 1.16 ± 0.046
23 | O[C@@H](COc1cccc2ncccc12)CN1CCN(C2c3ccccc3[C@@H]3[C@H](c4ccccc42)C3(F)F)CC1 (stereo partly drawn) | 1.04 ± 0.13
24 | NS(=O)(=O)NCCNc1nonc1/C(=N/O)Nc1ccc(F)c(Br)c1 | 1.2 ± 0.14
25 | COc1ccc(-c2coc3cc(O)cc(O)c3c2=O)cc1 [Biochanin A] | 1.112 ± 0.011
26 | CC(C)(C)c1cc(/C=C(\C#N)C(N)=S)cc(C(C)(C)C)c1O [Tyrphostin AG 879] | 0.329 ± 0.31

Row | SMILES | relative cell viability
27 | COC1=CC(=O)C[C@@H](C)[C@]12Oc1c(Cl)c(OC)cc(OC)c1C2=O [Griseofulvin] | 0.972 ± 0.11
28 | CCC(=O)NCC[C@@H]1CCc2ccc3c(c21)CCO3 [Ramelteon] | 1.22 ± 0.1
29 | CC[C@H](Nc1ncnc2[nH]cnc12)c1nc2cccc(F)c2c(=O)n1-c1ccccc1 [CAL-101 (Idelalisib, GS-1101)] | 1.19 ± 0.13
30 | O=C(NC1CCNCC1)c1n[nH]cc1NC(=O)c1c(Cl)cccc1Cl | 0.848 and 0.838
31 | CC(C)c1noc(N2CCC(COc3ccc(-c4ccc(S(C)(=O)=O)cc4)nc3)CC2)n1 | 0.931 ± 0.029
32 | O=CN1CC/C(=C/c2ccc3c(c2)OCO3)C1=O | 1.141 ± 0.011
33 | CC(=O)NC(Cc1ccc(O)cc1)C(=O)NC(CCCN=C(N)N)C(=O)NC(Cc1ccccc1)C(N)=O (stereo not drawn) | 0.977 ± 0.19
34 | CN(C)[C@@H](CCOc1cccc2ccccc12)c1ccccc1 [Dapoxetine HCl] | 1.02 ± 0.096
35 | CCCC(CCC)C(=O)O [Divalproex Sodium] | 1.13 ± 0.026
36 | CCCC(CCC)C(=O)O [Valproic acid sodium salt (Sodium valproate)] | 1.325 ± 0.0097
37 | CO[C@H]1C[C@@H]2CC[C@@H](C)[C@@](O)(O2)C(=O)C(=O)N2CCCC[C@H]2C(=O)O[C@H]([C@H](C)C[C@@H]2CC[C@@H](OP(C)(C)=O)[C@H](OC)C2)CC(=O)[C@H](C)/C=C(\C)[C@@H](O)[C@@H](OC)C(=O)[C@H](C)C[C@H](C)/C=C/C=C/C=C/1C [Ridaforolimus (Deforolimus, MK-8669)] | 0.944 ± 0.072
38 | O=S(=O)(N=Cc1c(O)ccc2ccccc12)c1cccs1 | 1.24 ± 0.058
39 | CCS(=O)(=O)N1CCC([C@@H](C)n2c(C)c(C(=O)NCc3c(OC)cc(C)[nH]c3=O)c3ccccc32)CC1 | 1.217 ± 0.0054
40 | CC[C@@H]1C(=O)N(C)c2cnc(Nc3ccc(C(=O)NC4CCN(C)CC4)cc3OC)nc2N1C1CCCC1 | 0.756 ± 0.045
41 | O=C1CCc2c(ccc3ccccc23)O1 [Splitomicin] | 1.23 ± 0.028
42 | Cc1c(OCC(F)(F)F)ccnc1C[S+]([O-])c1nc2ccccc2[nH]1 (stereo not drawn) [Lansoprazole] | 1.05 ± 0.048
43 | c1ccc(Cn2c(-c3ccc(OCC(C4CCNCC4)n4c(-c5ccccc5)nc5ccccc54)cc3)nc3ccccc32)cc1 (stereo not drawn) [Deltarasin] | 0.9797 ± 0.0069
44 | Cc1ccc(-n2[nH]c(C)c(N=Nc3cccc(-c4cccc(C(=O)O)c4)c3O)c2=O)cc1C [Eltrombopag] | 1.04 ± 0.1
45 | Cc1ccc(-n2[nH]c(C)c(N=Nc3cccc(-c4cccc(C(=O)O)c4)c3O)c2=O)cc1C [Eltrombopag Olamine] | 1.145 ± 0.0091
46 | NC1=N[C@@]2(c3cc(NC(=O)c4ccc(F)cn4)ccc3F)COC[C@H]2CS1 | 0.948 ± 0.07
47 | COc1ccc(COc2cc3oc(=O)c4cc(C(C)O)ccc4c3cc2OC)cc1 (stereo not drawn) [Palomid 529 (P529)] | 0.99901 ± 0.00082
48 | COc1ccc2cc1Oc1ccc(cc1)C[C@H]1c3c(cc4c(c3Oc3cc5c(cc3OC)CCN(C)[C@@H]5C2)OCO4)CCN1C [Cepharanthine] | 1.05 ± 0.088
49 | CCCc1nn(C)c2c(=O)[nH]c(-c3cc(S(=O)(=O)N4CCN(C)CC4)ccc3OCC)nc12 [Sildenafil Citrate] | 1.25 ± 0.062
50 | CN(C[C@@H]1COCCO1)S(=O)(=O)Nc1ccc2ccc3ncc(-c4cnn(C)c4)cc3c(=O)c2c1 | 0.8777 ± 0.0078
51 | N#CC[C@H](C1CCCC1)n1cc(-c2ncnc3[nH]ccc23)cn1 | 0.996 and 0.9
52 | CCOC(=O)CC(=O)N1CCSC1COc1ccccc1OC (stereo not drawn) [Moguisteine] | 1.08 ± 0.13

Row | SMILES | relative cell viability
53 | O=C(CSc1nc2c(c(=O)n1-c1ccccc1)SCC2)Nc1ccc(-c2ccccc2)cn1 | 0.861 ± 0.09
54 | O=C(c1ccc(F)c(F)c1Nc1ccc(I)cc1F)N1CC(O)([C@@H]2CCCCN2)C1 [Cobimetinib (GDC-0973, RG7420)] | 0.881 ± 0.099
55 | COc1cc2nc(N3CCCN(C)CC3)nc(NC3CCN(Cc4ccccc4)CC3)c2cc1OC | 0.967 ± 0.019
56 | O=S(=O)(c1cccc2cnccc12)N1CCCNCC1 [Fasudil (HA-1077) HCl] | 1.13 ± 0.071
57 | CC(C)c1cnn2c(NCc3ccccc3)cc(NCCCCCCN)nc12 | 0.924 ± 0.018
58 | CCC(C)C1OC2(CCC1C)CC1CC(CC=C(C)C(OC3CC(OC)C(OC4CC(OC)C(O)C(C)O4)C(C)O3)C(C)C=CC=C3COC4C(O)C(C)=CC(C(=O)O1)C34O)O2 (stereo not drawn) [Ivermectin] | 1.05 ± 0.11
59 | CC(NCCc1ccc(O)cc1)C(O)c1ccc(O)cc1 (stereo not drawn) [Ritodrine HCl] | 1.19 ± 0.018
60 | C[C@H](Nc1ncnc2nc[nH]c12)c1cc2cccc(Cl)c2c(=O)n1-c1ccccc1 | 1.16 ± 0.044
61 | CC(C)(O)CC(=O)NCCn1ccc2ncnc(Nc3ccc(Oc4cccc(C(F)(F)F)c4)c(Cl)c3)c21 | 0.956 ± 0.033
62 | Cc1c(C(=O)N2CCOc3ccc(-c4ccc(N)nc4)cc3C2)ccc(S(C)(=O)=O)c1F | 1.08 ± 0.074
63 | CCC(=O)O[C@]1(C(=O)SCF)[C@H](C)C[C@H]2[C@@H]3C[C@H](F)C4=CC(=O)C=C[C@]4(C)[C@@]3(F)[C@@H](O)C[C@@]21C [Fluticasone propionate] | 1.02 ± 0.043
64 | Nc1ccc(/N=N/c2ccccc2)c(N)n1 [Phenazopyridine HCl] | 1.32 ± 0.06
65 | CC(C)[C@H](O)C(=O)N[C@@H](C)C(=O)N[C@@H]1C(=O)N(C)CCc2ccccc21 | 1 ± 0.012
66 | Cc1[nH]nc2ccc(-c3cncc(OC[C@@H](N)Cc4ccccc4)c3)cc12 | 0.577 ± 0.044
67 | Nc1ccc(C(=O)O)c(O)c1 [Sodium 4-Aminosalicylate] | 0.901 ± 0.1
68 | COc1cc(CCc2cc(NC(=O)c3ccc(N4CC(C)NC(C)C4)cc3)n[nH]2)cc(OC)c1 (stereo not drawn) | 1.16 ± 0.2
69 | CCCCN1CCCC[C@H]1C(=O)Nc1c(C)cccc1C [Levobupivacaine HCl] | 1.01 ± 0.037
70 | CNCc1ccc(C)c(NC(=O)c2ccc(Nc3nc(-c4ccccc4)c4ccccc4n3)cc2)c1 | 0.862 ± 0.065
71 | CCCc1cc2c(N3CCN(C4=NCC(C)(C)S4)CC3)ncnc2s1 [MI-2 (Menin-MLL Inhibitor)] | 0.952 ± 0.058
72 | Clc1ccc(C(c2ccccc2Cl)C(Cl)Cl)cc1 (stereo not drawn) [Mitotane] | 0.983 ± 0.06
73 | O=C1O[C@H]([C@@H](O)CO)C(O)=C1O [Vitamin C] | 1.07 ± 0.04
74 | Cc1cccc(C)c1OCC(=O)N[C@@H](Cc1ccccc1)[C@@H](O)C[C@H](Cc1ccccc1)NC(=O)[C@H](C(C)C)N1CCCNC1=O [Lopinavir] | 1.06 ± 0.015
75 | O=C(O)Cn1nnc(-c2cc(N3CCC(Oc4cc(F)ccc4Br)CC3)no2)n1 | 1.28 ± 0.22
76 | O=C(O)c1ccccc1Nc1cccc(C(F)(F)F)c1 [Flufenamic acid] | 1.12 ± 0.046
77 | Nc1cc(C(F)(F)F)c(-c2cc(N3CCOCC3)nc(N3CCOCC3)n2)cn1 [BKM120 (NVP-BKM120, Buparlisib)] | 0.777 ± 0.066
78 | Cc1c(C(=O)Nc2ccc(N3C[C@@H](C)O[C@@H](C)C3)nc2)cccc1-c1ccc(OC(F)(F)F)cc1 [LDE225 (NVP-LDE225,Erismodegib)] | 0.714 ± 0.081

From the supplement of paper PMC10670038
